Data published in PubChem BioAssay (NCATS).
Inconclusive means that the source gave no clear call. Such entries were picked first, then a sample of the others. Where the call is inconclusive, the potency comes from a doubtful curve fit. Calls of active or inactive are those of the source. The call rests on the fitted dose curve; in most records, active means well fitted activation curve with a large enough effect; inconclusive means small, poorly fitted or top-dose-only effect; inactive means no such curve, though single readings can be large or run the other way.

Target: Cellular tumor antigen p53 (Homo sapiens) (UniProt P04637)
Experiment: Primary qHTS for small molecule compounds that upregulate eGFP-tagged delta133p53alpha (in N-terminal) cells. (AID 2060322); further: nearly all actives have a fitted effect of over 75% in size;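 on activation: series mostly up to about 56 µM; 0% = DMSO vehicle and 100% = reference activator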
Details: NCI-H358 eGFP-delta133p53alpha fluorescence, 24 h; activation: active compounds read high
Summary of the method: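 NCI-H358 cells pre-induced 24 h with 10 ng/ml doxycycline to express N-terminal eGFP-delta133p53alpha, then dosed 24 h at 37C without doxycycline; fixed, Hoechst-stained, GFP intensity by laser scanning cytometry, normalized to DMSO (0%) and 57.5 uM 5-azacytidine (100%).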
Potency means the concentration at half of the fitted maximal effect; tags describe the fitted curve by direction and shape.

UniProt P04637, sequence (P04637 whole entry, looked up): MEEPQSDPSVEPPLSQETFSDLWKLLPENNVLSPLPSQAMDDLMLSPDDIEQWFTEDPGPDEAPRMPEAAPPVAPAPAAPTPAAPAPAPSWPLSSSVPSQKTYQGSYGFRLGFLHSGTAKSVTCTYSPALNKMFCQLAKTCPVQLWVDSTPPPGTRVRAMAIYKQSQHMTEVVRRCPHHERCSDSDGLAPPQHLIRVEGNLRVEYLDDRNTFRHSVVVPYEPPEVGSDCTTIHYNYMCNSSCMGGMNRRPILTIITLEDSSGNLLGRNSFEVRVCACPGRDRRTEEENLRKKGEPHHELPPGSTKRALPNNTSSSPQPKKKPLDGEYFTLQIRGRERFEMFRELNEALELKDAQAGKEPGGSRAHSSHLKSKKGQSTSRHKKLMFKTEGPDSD

Row | Compound | activation | Potency
1 | C[C@@H]1O[C@@H](O[C@H]2[C@H](OC(=O)[C@]34CCC(C)(C)C[C@H]3C3=CCC5[C@@]6(C)C[C@H](O)[C@H](O[C@@H]7O[C@H](CO)[C@@H](O[C@H]8OC[C@](O)(CO)[C@H]8O)[C@H](O)[C@H]7O)[C@@](C)(CO)C6[C@H](O)C[C@@]5(C)[C@]3(C)C[C@H]4O)OC[C@H](O)[C@@H]2O)[C@H](O)[C@H](O)[C@H]1O[C@@H]1OC[C@@H](O)[C@H](O[C@@H]2OC[C@](O)(CO)[C@H]2O)[C@H]1O (some centres undefined) | inactive: -17.6% | 
2 | C[C@@]12CC[C@@H]3[C@@](CC[C@H]4[C@@]3(C)CCC[C@@]4(C)C(=O)O)(CC1=O)C2 |  | inconclusive: 37.9 µM [activator, single point]
3 | Cn1c(=O)cc(N2CCCC(N)C2)n(Cc2cc(F)ccc2C#N)c1=O (centres undefined) | inactive: -2.86% | 
4 | CC(C)c1nc(N(C)S(C)(=O)=O)nc(-c2ccc(F)cc2)c1/C=C/[C@@H](O)C[C@@H](O)CC(=O)O | inactive: -19% | 
5 | COc1cc(C)c(C(=O)O[C@H]2[C@@H](O)[C@H](n3ccc(=O)[nH]c3=O)O[C@@H]2CO)c(OC)c1 | inactive: -3.05% | 
6 | COc1ccc2c(c1)N1C(=O)C[C@@]34C=CC[N@+]5([O-])CC[C@H]2[C@H](CC3)[C@@]145 |  | inconclusive: 3.71 µM [activator, partial curve, poor fit]
7 | O=C(NC1Cc2ccccc2N(C[C@@H](O)CO)C1=O)c1cc2cc(Cl)sc2[nH]1 (some centres undefined) |  | inconclusive: 26.9 µM [activator, single point]
8 | C=C1C(=O)OC2/C=C(\COC(C)=O)CC/C=C(\C=O)CC(OC(=O)C(C)CC)C12 (centres undefined) |  | inconclusive: 18.5 µM [activator, single point]
9 | COc1cccc2c1C(=O)c1c(O)c3c(c(O)c1C2=O)C[C@@](O)(C(=O)CO)C[C@@H]3O[C@H]1C[C@H](N)[C@H](O[C@@H]2CCCCO2)[C@H](C)O1 |  | active: 15.5 µM
10 | O=c1[nH]c2ccccc2n1CCCN1CCN(C(c2ccccc2)c2ccccc2)CC1 |  | inconclusive: 38.9 µM [activator, single point]
11 | C=C1C(OC(C)=O)CCC2(C)CC3(OC)OC(=O)C(C)=C3CC12 (centres undefined) | inactive: 17.9% | 
12 | CC(=O)O[C@@](C)(C(=O)/C=C/C(C)(C)O)[C@H]1[C@H](O)C[C@@]2(C)[C@@H]3CC=C4[C@@H](C=C(O)C(=O)C4(C)C)[C@]3(C)C(=O)C[C@]12C |  | inconclusive: 10.4 µM [activator, single point]
13 | CCC[C@H](NC(=O)C(C#N)=Cc1cccc(Br)n1)c1ccccc1 |  | inconclusive: 43.2 µM [activator, single point]
14 | CC(C)=CCCC1(C)/C=C/C(OC(=O)C=C(C)C)C(C)(O)/C=C/C(=O)/C(CO)=C\C1 (centres undefined) |  | active: 10.4 µM
15 | FC(F)(F)Oc1ccc(-c2ccc3nnc(C(F)(F)F)n3c2)cc1 | inactive: -3.34% | 
16 | CC[N+](CC)(CCNC(=O)C(=O)NCC[N+](CC)(CC)Cc1ccccc1Cl)Cc1ccccc1Cl | inactive: -9.6% | 
17 | CC(C)(O)c1ccc2c(c1)C(O)C[C@H]1[C@](C)(C(=O)O)CCC[C@]21C (some centres undefined) | inactive: 3.57% | 
18 | CN(C)C(CCOc1cccc2ccccc12)c1ccccc1 (centres undefined) |  | inconclusive: 37.9 µM [activator, single point]
19 | CC1(C)CC[C@]2(C(=O)O)CC[C@]3(C)C(=CCC4[C@@]5(C)CC[C@H](O[C@@H]6O[C@H](C(=O)O)[C@@H](O)[C@H](O[C@@H]7O[C@H](CO)[C@H](O)[C@H](O)[C@H]7O)[C@H]6O[C@@H]6O[C@H](CO)[C@@H](O)[C@H](O)[C@H]6O)C(C)(C)C5CC[C@]43C)[C@@H]2C1 (some centres undefined) |  | inconclusive: 0.654 µM [activator, single point]
20 | FC(F)(F)c1ccc(C=Cc2nc(COc3ccc(CCCCn4ccnn4)cc3)co2)cc1 |  | active: 24.3 µM

Row | Compound | activation | Potency
21 | CC(C)[N+]1(C)[C@@H]2CC[C@H]1CC(OC(=O)C(CO)c1ccccc1)C2 (some centres undefined) | inactive: 33.8% | 
22 | Nc1ccc2c(c1)CN1C(=O)c3ccccc3C1=N2 |  | active: 0.0601 µM
23 | CC(C=CC(=O)NO)=C[C@@H](C)C(=O)c1ccc(N(C)C)cc1 |  | inconclusive: 1.53 µM [activator, full curve]
24 | CCCCCCCCCCCCCC[N+](C)(C)C |  | inconclusive: 15.5 µM [activator, single point]
25 | CC(C)(C)[C@H](NC(=O)c1ccc(N)c(Cl)c1)C(=O)N1CCC[C@H]1C(=O)N[C@H](C#N)CC(=O)O | inactive: -7% | 
26 | O=C(Nc1ccc(Cl)cc1)c1ccccc1NCc1ccncc1 |  | inconclusive: 10.7 µM [activator, partial curve, poor fit]
27 | CN(C)c1ccc(C(=C2C=CC(=[N+](C)C)C=C2)c2ccccc2)cc1 |  | inconclusive: 2.46 µM [activator, partial curve, poor fit]
28 | O=C1Cc2c([nH]c3ccc(Br)cc23)-c2ncccc2N1 |  | inconclusive: 12 µM [activator, partial curve]
29 | OC[C@H]1O[C@@H](Oc2cc(O)c3c(c2)O[C@@H](c2ccc(O)cc2)[C@H](O)C3)[C@H](O)[C@@H](O)[C@@H]1O | inactive: 4.46% | 
30 | Cc1ccc(C(=O)C(C)CN2CCCCC2)cc1 (centres undefined) |  | inconclusive: 19.5 µM [activator, partial curve]
31 | COC(=O)Nc1nc2ccc(C(=O)C3CC3)cc2[nH]1 |  | inconclusive: 1.1 µM [activator, single point]
32 | CC1CC(O)/C=C/C(O)/C=C\C(=O)O1 (centres undefined) | inconclusive: 32.8% [activator] | 
33 | CCC(C)C(=O)O[C@H]1[C@H](O)[C@@]2(COC(C)=O)C(CC1(C)C)C1=CCC3[C@@]4(C)CC[C@H](O[C@@H]5O[C@H](C(=O)O)[C@@H](O)[C@H](O)[C@H]5O)[C@@](C)(CO)C4CC[C@@]3(C)[C@]1(C)C[C@@H]2O (some centres undefined) | inactive: -0.893% | 
34 | CN1CCN(c2c(F)cc3c(=O)c(C(=O)O)cn4c3c2OCN4C)CC1 |  | inconclusive: 1.72 µM [activator, partial curve, poor fit]
35 | NC(=O)C(CCC(F)(F)F)N(Cc1ccc(-c2ncon2)cc1F)S(=O)(=O)c1ccc(Cl)cc1 (centres undefined) |  | inconclusive: 26.9 µM [activator, partial curve, poor fit]
36 | CC1=C[C@@H]2[C@H]3[C@@H]4O[C@@](C)(CC[C@H]4O)[C@H]3CC(=O)[C@]23C(=O)N[C@@H](CC(C)C)[C@@H]3[C@@H]1C |  | inconclusive: 2.95 µM [activator, partial curve, poor fit]
37 | CC(Oc1ccc2[nH]nc(/C=C/c3cnn(CCO)c3)c2c1)c1c(Cl)cncc1Cl (centres undefined) |  | inconclusive: 5.36 µM [activator, partial curve, poor fit]
38 | C=C1C(O)C(O)C2(CC3C(C)=CCC4C(C)(CO)CCCC34C)OC2C1O (centres undefined) |  | inconclusive: 0.416 µM [activator, full curve, poor fit]
39 | C=CCNc1c(O)cc2c(O)c1C[C@@H](C)C[C@H](OC)[C@@H](O)[C@@H](C)C=C(C)[C@H](OC(N)=O)[C@@H](OC)C=CC=C(C)C(=O)N2 | inactive: 1.58% | 
